# Experimental data: paper PMC5836133
# This is one part of the list. At the low end of the ranking, values are background and their order means little.
# Test system: T1, GST-NbGlk1(82-244)
# T1 sequence: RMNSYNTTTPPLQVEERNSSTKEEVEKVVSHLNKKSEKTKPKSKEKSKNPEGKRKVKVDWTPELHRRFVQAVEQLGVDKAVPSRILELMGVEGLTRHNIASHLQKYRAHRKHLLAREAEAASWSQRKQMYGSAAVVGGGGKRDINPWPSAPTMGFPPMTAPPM
# Assay: protein-binding microarray;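 note: rank-based score ranging −0.5 to +0.5 with E above 0.45 taken as significant binding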
# Settings: NbGlk1 is a Golden2-like transcription factor of Nicotiana benthamiana; high values mean tight binding; most listed sequences are background and not binding sites; double strand, one strand shown
row,Sequence,binding signal [E-score]
1,AGCTCGAT,-0.0429
2,ATATTGGG,0.111
3,AAGGTATC,0.176
4,CACAGTAA,0.0441
5,CAGACTAA,-0.155
6,ATACGATC,0.247
7,ACCTCGAA,-0.0229
8,ATTACCGC,0.289
9,CAATCCCA,0.279
10,AGCATGCA,-0.157
11,CAATTCAG,0.0635
12,ATGGTCCC,-0.121
13,AGGCTTAA,-0.141
14,CAATCTAG,0.374
15,ATAACGCG,0.0605
16,AGCACAAC,-0.0284
17,AAGTTCAT,-0.0297
18,AGTCAGTC,-0.223
19,ACTAAAAT,0.281
20,CACGCGTG,0.0359
21,ACTTGTGC,-0.218
22,AGCGTCAG,-0.154
23,CAAGCCTC,-0.288
24,AAGCACTA,-0.0739
25,AAAATTTT,0.271

row,Sequence,binding signal [E-score]
1,ACAAAAAG,0.0571
2,AACTTACT,-0.0295
3,ATGCGAGA,0.0136
4,ACGCGTAG,-0.00126
5,AGGACCAA,-0.162
6,ATAAAACA,0.0799
7,ATTGTGAA,0.169
8,ACTGCGAC,-0.138
9,AGTCTAAG,0.0387
10,AGATTGGC,0.173
11,ACTTCGGA,-0.136
12,AAAACGTT,-0.0539
13,AAAAGTCC,-0.137
14,AACGTTTG,-0.0367
15,ACTGCATA,0.0335
16,ATACTCGC,0.102
17,CAATTCGG,0.0142
18,ACCCGGAT,0.197
19,ATGCGCGC,0.011
20,AATTGGGT,0.0071
21,AAGGACAC,-0.249
22,AAGATCCG,0.332
23,AGGATTGC,0.45
24,CAGACTGC,-0.211
25,CAAATTGC,0.0752

row,Sequence,binding signal [E-score]
1,ATATCTTA,0.408
2,AGATCATG,0.121
3,AGGGATGA,-0.0992
4,AATCTATC,0.366
5,ACTACTTC,-0.00335
6,ATCGCCCA,0.175
7,AAGAGAAC,-0.118
8,ACGAGCCA,-0.172
9,AACGTCAT,-0.0559
10,AAGACTCT,-0.238
11,CACTCGTA,0.0544
12,CACGCGGA,-0.0595
13,ACCTACAT,0.102
14,ATGCACGG,-0.0415
15,ATGGGCGA,-0.0147
16,CAGCCCCC,-0.332
17,AGTTACTG,0.0146
18,ACGGACCT,-0.323
19,ATTTAGCA,0.136
20,AGTTAACT,-0.051
21,ACGTGAAT,0.0505
22,ACCCAAGC,-0.257
23,CACCCAAC,-0.112
24,AGACAGTC,-0.29
25,CACAACGA,0.176

row,Sequence,binding signal [E-score]
1,ATTAGGCG,-0.023
2,ACTAGCCA,-0.177
3,ATTAAACC,-0.0527
4,AATCTAGT,0.421
5,AGGCCCTG,-0.271
6,ACGACCCG,-0.144
7,AGCTTCGA,-0.162
8,AGGCACCA,-0.0285
9,CAACGTCC,-0.257
10,CACACATA,0.135
11,AAAAATCG,0.389
12,CACTGAGC,-0.252
13,ATAGCGGC,-0.0415
14,CAGCCACA,-0.0728
15,AAAAACCA,-0.023
16,ATAATCTC,0.346
17,ACTCAAGC,-0.117
18,AATAGTGA,-0.136
19,ATGTGCCA,-0.0502
20,ATCGGAAC,0.0791
21,ACACGGCA,-0.088
22,ATGTTCCC,-0.0564
23,AACCCTGT,-0.148
24,AAAGCCGT,-0.257
25,AAAGGCCA,-0.21

row,Sequence,binding signal [E-score]
1,ACAACATG,-0.0545
2,ACATGGGC,-0.116
3,AAGAAACG,0.0189
4,ATATCCAA,0.407
5,AATGATGG,0.0186
6,ACAGAATA,0.257
7,AGAGTGCG,-0.154
8,ACTCACCC,-0.208
9,AAAGTGAC,-0.0637
10,ATCCGGGA,0.241
11,AGTGTTAT,-4.16e-05
12,AGCAAGTC,-0.165
13,AAGCGTTC,-0.094
14,ACGTAACC,0.0963
15,AGGGGTCG,-0.248
16,AGTAACGC,-0.157
17,CAAGCTGA,-0.187
18,ATGCTAGG,-0.0271
19,AATACCAC,0.152
20,ATCTACAC,0.34
21,ACGGTCTA,-0.0505
22,AGCAAACA,-0.0626
23,ACCTCTGC,-0.23
24,AAAAGCAA,0.104
25,ACCGTTCG,-0.207

row,Sequence,binding signal [E-score]
1,AATGGCAT,-0.211
2,AGCAGATA,0.259
3,AGTACGTA,0.00602
4,ACTAGTTA,-0.0683
5,AAGTCCCA,-0.262
6,AAAGCCCC,-0.361
7,AGAAACAT,0.0809
8,ACAGTTAG,-0.0445
9,ATCGAAGG,0.0131
10,AAGGTGCA,-0.148
11,ACATTTGA,0.013
12,AACTACTA,0.107
13,AAGTGAAG,-0.196
14,ACCAGCCT,-0.122
15,ATCTCAAG,0.256
16,AGATCAGG,0.199
17,CAAATTGA,0.0183
18,AGGCTCAG,-0.183
19,CAAGGCAG,-0.0717
20,ACTACCGA,0.0202
21,ATTTTACC,0.148
22,ATTTTCGC,0.186
23,AAAGGTAC,-0.147
24,AACTATTA,0.0421
25,ACAGTAGG,-0.0203

row,Sequence,binding signal [E-score]
1,AGACCAAT,-0.0539
2,ACATCTAA,0.155
3,AGGTTCCC,-0.231
4,ATGTTATG,-0.0213
5,ATGGGAAT,0.296
6,ACTGCTCG,0.00881
7,ACTTGCAC,-0.0718
8,AATGCATT,0.0368
9,ATGGTCGC,-0.155
10,CACCTTTC,-0.14
11,ACAGACAA,0.111
12,ATTGGGAC,-0.0364
13,ATATCCCC,0.36
14,ATACGTCA,0.0405
15,ACGTCTTA,-0.0459
16,CACGGCAG,-0.147
17,AATCACGT,0.304
18,AGTTGGAC,-0.301
19,AGTCTAAT,-0.087
20,AGACTGCG,-0.111
21,CAGATCAA,0.00768
22,AGTCATTA,-0.0127
23,AGTGGGAA,-0.123
24,CACAGGTC,-0.215
25,AACACGTC,-0.104

row,Sequence,binding signal [E-score]
1,AGCTGTGG,-0.269
2,ATCGTCCC,0.0736
3,AACCGTAG,-0.185
4,CAATTACG,0.18
5,AATTATCA,0.0622
6,ACGATCCG,0.223
7,AAACGGCC,-0.164
8,AACTGCGG,0.0269
9,AAAGTTGA,0.0552
10,ATATGGAT,0.316
11,ACTGTAAC,-0.0715
12,AACTTTGA,-0.0965
13,AACGGCTG,-0.192
14,AAGTTTAT,-0.0134
15,AGGCAGCA,-0.07
16,AAGACTCG,-0.0955
17,ACAAAAAT,0.238
18,AGATAGTC,0.00315
19,ACCCAATG,-0.0983
20,AGTAGAAT,0.267
21,AACCTGAA,0.0483
22,AGAGTTAT,0.0292
23,AAGAACGG,-0.123
24,AAGATGGC,-0.0665
25,ACCCAACA,-0.109

row,Sequence,binding signal [E-score]
1,CAAGTTAC,-0.0377
2,ATTCCGAA,0.183
3,CAATCTTC,0.294
4,AAGGCGGG,-0.0985
5,AAGCAGCA,-0.0683
6,ATATGTGG,0.149
7,AATTGACG,0.0464
8,ACGATTGA,0.0146
9,AGGTTAAT,-0.0119
10,AGAATCCG,0.478
11,AAGTGTCG,0.0825
12,AGCTATGG,-0.147
13,AACTGTCA,-0.0168
14,ATTCTGCG,0.217
15,AACTTTTA,-0.0292
16,CAGAATGG,-0.122
17,AACAACCC,-0.117
18,AACTGGAC,-0.0886
19,ATACTTGG,0.0374
